Results published in the antibiotic and cytotoxicity screens of Wong et al. (2023).
Some of the results follow.

Assays:
HSkMC = human skeletal muscle cells; experiment: cytotoxicity call (relative viability < 0.9); conditions: 10 µM
HepG2 = experiment: cytotoxicity call (relative viability < 0.9); conditions: 10 µM
S. aureus RN4220 = experiment: growth inhibition call (relative growth <= 0.2); conditions: 50 µM

Structure (SMILES) | cytotoxicity call (HSkMC) | cytotoxicity call (HepG2) | growth inhibition call (S. aureus RN4220)
CC(=O)NCCCC[C@@H]1NC(=O)[C@H]2C[C@@H](C(=O)NCCCCCCNC(=O)CS)[C@@H](c3ccc(O)cc3)N2C1=O | inactive | inactive | inactive
CN1CCN(C(=O)C[C@@H]2CC[C@@H]3[C@H](COC[C@@H](O)CN3C(=O)Nc3ccc4c(c3)OCO4)O2)CC1 | inactive | inactive | inactive
Cc1noc(C)c1NC(=O)Nc1ccc2c(c1)C(=O)N([C@H](C)CO)C[C@H](C)[C@H](CN(C)Cc1ccncc1)OCCCC[C@@H](C)O2 | inactive | inactive | inactive
CC(C(=O)O)c1ccc(-c2ccccc2)c(F)c1 (stereo not drawn) | inactive | inactive | inactive
Nc1ccn(C[C@@H](CO)OCP(=O)(O)O)c(=O)n1 | inactive | inactive | inactive
COc1ccc(S(=O)(=O)Nc2ccc3c(c2)C(=O)N([C@@H](C)CO)C[C@H](C)[C@H](CN(C)Cc2ccccc2)OCCCC[C@H](C)O3)cc1 | inactive | inactive | inactive
C[C@@]1(N)CCCC[C@@H]1C(=O)O | inactive | inactive | inactive
C[C@@H]1CN([C@@H](C)CO)C(=O)Cc2cc(NC(=O)CCC(F)(F)F)ccc2O[C@H]1CN(C)Cc1ccc(-c2ccccc2)cc1 | active | inactive | inactive
Cn1cc(C(=O)N2C[C@@H]3COC[C@@]3(CNS(C)(=O)=O)C2)cn1 | inactive | inactive | inactive
CC(C)[C@@H](CO)N1C(=O)[C@@H]2[C@H]3C(=O)OCCC/C=C\[C@H]3O[C@]23C=CCN(CCN2CCOCC2)C(=O)[C@@H]13 | inactive | inactive | inactive
Cc1cc(C(=O)Nc2cccc3c2O[C@@H](CN(C)S(=O)(=O)c2ccc(Cl)cc2)[C@H](C)CN([C@@H](C)CO)C3=O)n(C)n1 | inactive | inactive | inactive
COc1cccc(-c2ccc3c(c2)O[C@@H](CN(C)Cc2cncnc2)[C@@H](C)CN([C@H](C)CO)S3(=O)=O)c1 | inactive | inactive | inactive
C[C@H](O)C#Cc1cnc2c(c1)C(=O)N([C@@H](C)CO)C[C@H](C)[C@H](CN(C)C(=O)CN1CCOCC1)O2 | inactive | inactive | inactive
COCC(=O)N1C[C@@H](C)[C@@H](OC)CN(C)C(=O)c2cc(NC(=O)Nc3cccc(F)c3)ccc2OC[C@@H]1C | inactive | inactive | inactive
C[C@H](CO)N1C[C@H](C)[C@H](CN(C)S(=O)(=O)c2ccc(Cl)cc2)Oc2ccc(NC(=O)CCN3CCOCC3)cc2CC1=O | inactive | inactive | inactive
COc1ccc(NC(=O)N(C)C[C@H]2OCCCC[C@@H](C)Oc3ccc(NC(=O)Nc4c(C)noc4C)cc3C(=O)N([C@H](C)CO)C[C@@H]2C)cc1 | inactive | inactive | inactive
CCCC#Cc1ccc2c(c1)O[C@@H](CN(C)Cc1ccc3c(c1)OCO3)[C@H](C)CN([C@H](C)CO)S2(=O)=O | inactive | inactive | inactive
C[C@@H]1CN([C@@H](C)CO)C(=O)c2cc(NC(=O)Nc3ccc4c(c3)OCO4)ccc2O[C@@H](C)CCCCO[C@H]1CN(C)CC1CCCCC1 | inactive | active | inactive
C[C@H]1CN([C@@H](C)CO)C(=O)c2cccc(NC(=O)Nc3cccc4ccccc34)c2O[C@H]1CN(C)C(=O)Nc1ccc(C(F)(F)F)cc1 | active | active | inactive
Cc1noc(C)c1S(=O)(=O)N(C)C[C@H]1OCc2cnnn2CCCC(=O)N([C@H](C)CO)C[C@@H]1C | inactive | inactive | inactive
COC(=O)[C@@H](Cc1ccccc1)N[C@H](/C=C/C1CC1)[C@@H](O)CCn1cc(-c2ccc(C(=O)NO)cc2)nn1 | inactive | active | inactive
CCS(=O)(=O)N1C[C@]2(CN(C2)C(=O)Nc2ccc3c(c2)OCO3)c2c(n(c3cc(ccc23)OC)C)[C@@H]1CO | inactive | inactive | inactive
Cc1ccc(S[C@]2(C(=O)NCC(C)C)CC(=O)N(C3Cc4ccccc4C3)[C@@H]2c2ccc(CO)cc2I)cc1 | inactive | inactive | inactive
OCCC1CCOCC1 | inactive | inactive | inactive
C[C@@H]1CN([C@H](C)CO)C(=O)Cc2cc(NS(=O)(=O)c3cn(C)cn3)ccc2O[C@@H]1CN(C)C(=O)Nc1ccc(F)cc1 | inactive | inactive | inactive
C[C@H]1CN([C@@H](C)CO)C(=O)c2cccc(NS(C)(=O)=O)c2O[C@H]1CN(C)C(=O)Nc1ccc(C(F)(F)F)cc1 | inactive | inactive | inactive
